According to US20250295792A1, “POLYETHYLENE GLYCOL-MODIFIED FORM OF KININ OR DERIVATIVE THEREOF AND PHARMACEUTICAL USE THEREOF” (ZonHon Biopharma Institute, Inc., priority 2022, published 2025):
At least one peptide structure holds a part that was inferred or is arguable (an end, a ring closure or a residue). Some entries repeat one wording, which the source may state once for all of them. Where a SMILES comes first, the peptide text is derived from it. [ ]: non-standard residue; d: D form. 2Thi = N[C@@H](Cc1cccs1)C(=O)O

Experiments:
B2 receptor = target: T1, B2 receptor (Homo sapiens, UniProt P30411); test: B2 receptor reporter gene assay in B2-NFAT-CHO-K1 cells; assay type: cell-based; conditions: for Relative affinity activity: Table 3-1, relative activity calculated from EC50, wild type Lys-BK = 100%; for Affinity activity to B2 receptor (in words): reporter gene assay
T1 construct: expressed in transfected cells; host or cells: CHO-K1
T1 sequence (P30411 1-391): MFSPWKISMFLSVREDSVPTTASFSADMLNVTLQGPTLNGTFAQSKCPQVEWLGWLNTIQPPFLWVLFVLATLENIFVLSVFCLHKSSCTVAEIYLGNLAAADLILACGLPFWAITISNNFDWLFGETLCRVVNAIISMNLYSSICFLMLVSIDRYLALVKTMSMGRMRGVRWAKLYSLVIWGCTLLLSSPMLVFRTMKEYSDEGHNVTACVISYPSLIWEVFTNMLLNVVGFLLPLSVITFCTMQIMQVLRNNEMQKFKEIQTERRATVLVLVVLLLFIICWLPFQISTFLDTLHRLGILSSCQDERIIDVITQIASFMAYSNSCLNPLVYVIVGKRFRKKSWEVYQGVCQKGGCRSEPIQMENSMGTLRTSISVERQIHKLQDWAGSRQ
Excerpt: The pharmacological action of lysyl bradykinin/bradykinin in vivo is achieved by binding to B2 receptors and activating downstream signaling pathways
The cell line B2-NFAT-CHO-K1 stably transfected with B2 receptor reporter gene was constructed based on CHO-K1 host cells and the cell library was constructed. The B2-NFAT-CHO-K1 cell library was used to evaluate the binding activity of lysyl bradykinin/bradykinin or its variants or PEG modified products to B2 receptor in vitro.
Detection methods: The cells were cultured in 96-well plates at 5×10^4 cells/well, 37° C., 5% CO2 for 16-20 hours, and then gradient diluted standard and test solutions were added. After 5 hours, added Bio-Lite luciferase detection reagent and the chemiluminescence intensity was measured. GraphPad was used to make four-parameter equation curve and calculate the relative activity according to the EC50 value.
(§1) In vitro B2-receptor affinity activity and activity of activating downstream signaling pathway of PEG conjugates of lysyl bradykinin and its variants were tested, as in Example 3.

[1] = test system: p-CREB and p-ERK1/2, B2 receptor downstream signals; test: Western blot of p-ERK1/2 and p-CREB in CHO-K1 cells overexpressing B2 receptor; assay type: cell-based; conditions: for Activation of phosphorylation of downstream ERK1/2 and CREB (qualitative): FIG. 2, 1 μM sample, 5 min, WB; for Phosphorylation of CREB protein compared with LBK group: FIG. 2d
Method: as §1

[2] = test system: middle cerebral artery occlusion (MCAO) cerebral ischemia-reperfusion model; test: MCAO cerebral ischemia-reperfusion model: neurological deficit score and cerebral infarct size; assay type: in vivo, SD rats; conditions: no PEG modification, or no receptor binding activity; different doses and administration routes
Method: SD rats, male, SPF grade, weighing 270-300 g. The middle cerebral artery occlusion (MCAO) of cerebral ischemia-reperfusion model was prepared by using the intraluminal suture method in rats. Animals were anesthetized with gas (isoflurane), and then fixed them in a supine position. The skin was disinfected, and the right common carotid artery, external carotid artery, and internal carotid artery were separated from the midline incision in the neck. The vagus nerve was gently peeled off, and the external carotid artery was ligated and cut. The common carotid artery was clamped near the proximal end, and an incision was made from the distal end of the ligature line of the external carotid artery. The suture (model 2438-A5, purchased from Beijing Xinong Technology Co., LTD.) was inserted and passed through the bifurcation of the common carotid artery into the internal carotid artery. The suture was then slowly inserted until slight resistance was encountered (about 20 mm from the bifurcation), blocking the blood supply to the middle cerebral artery. The neck skin was sutured, disinfected, and the rat was returned to the cage. After 90 minutes of ischemia, the rat was anesthetized again, fixed on the rat board, and the neck skin was cut open to find the suture, which was gently removed. Reperfusion was performed, and the neck skin was sutured, disinfected, and the rat was returned to the cage for feeding.
The rats were divided into sham operation group, model group (administered PBS intravenously), Edaravone group (administered intravenously, 6 mg/kg), and PEG conjugate of lysyl bradykinin group (administered intravenously, 3 mg/kg). The rats were injected once after 2 hours of reperfusion.
The modified Bederson method was used to evaluate neurological defect symptoms.
Animals were anesthetized with 10% chloral hydrate, the brain tissue was removed, the olfactory bulbs, cerebellum and lower brainstem were removed, and the bloodstain on brain surface was washed with […]. After removing surface residual water, the brain tissue was placed at −80° C. for 7 minutes, took out and cut into coronal sections perpendicular to the visual cross plane, and sliced at intervals of 2 mm to the posterior direction. The brain slices were placed in fresh TTC (20 g/L) dye solution prepared with SPSS at 37° C. for 90 minutes. […] The percentage of cerebral infarction area was calculated using the following formula: […]
Except for Table 7-6, the dosage of the other groups was 3 mg/kg (all the dosage was calculated based on peptides). […]
Based on the same model, the effect of PEG conjugate of lysyl bradykinin variant was investigated by both intravenous and subcutaneous injection at dose of […] (the dose was calculated based on polypeptide). […]

| Structure (SMILES) | Relative affinity activity (B2 receptor) [%] | Activation of phosphorylation of downstream ERK1/2 and CREB (qualitative) [1] | Improvement in neurological deficits in animal models (in words) [2] | Phosphorylation of CREB protein compared with LBK group [1] | Affinity activity to B2 receptor (in words) (B2 receptor) |
| --- | --- | --- | --- | --- | --- |
| N=C(N)NCCC[C@H](NC(=O)[C@H](Cc1ccccc1)NC(=O)[C@@H]1CCCN1C(=O)[C@H](CO)NC(=O)[C@H](Cc1ccccc1)NC(=O)CNC(=O)[C@@H]1CCCN1C(=O)[C@@H]1CCCN1C(=O)[C@H](CCCNC(=N)N)NC(=O)[C@@H](N)CCCCN)C(=O)O [Lys-BK, lysyl bradykinin, reference compound] | 100 | can activate the phosphorylation of downstream ERK1/2 and CREB proteins | showed no improvement in neurological deficits | – | – |
| N=C(N)NCCC[C@H](NC(=O)[C@H](Cc1ccccc1)NC(=O)[C@@H]1CCCN1C(=O)[C@H](CO)NC(=O)[C@H](Cc1cccs1)NC(=O)CNC(=O)[C@@H]1CCCN1C(=O)[C@@H]1CCCN1C(=O)[C@H](CCCNC(=N)N)NC(=O)[C@@H](N)CCCCN)C(=O)O [Lys-BKm01] (H-KRPPG[2Thi]SPFR-OH; N-terminus and C-terminus assumed) | 100 | showed the activity of activating downstream pathways | showed no improvement in neurological deficits | – | – |
| N=C(N)NCCC[C@H](NC(=O)[C@H](Cc1ccccc1)NC(=O)[C@@H]1CCCN1C(=O)[C@H](CO)NC(=O)[C@H](Cc1cccs1)NC(=O)CNC(=O)[C@@H]1CCCN1C(=O)[C@@H]1CCCN1C(=O)[C@@H](N)CCCNC(=N)N)C(=O)O [Lys-BKm02] (H-RPPG[2Thi]SPFR-OH; N-terminus and C-terminus assumed) | 100 | showed the activity of activating downstream pathways | showed no improvement in neurological deficits | – | – |
| N=C(N)NCCC[C@H](NC(=O)[C@H](Cc1ccccc1)NC(=O)[C@@H]1CCCN1C(=O)[C@H](CO)NC(=O)[C@H](Cc1c[nH]cn1)NC(=O)CNC(=O)[C@@H]1CCCN1C(=O)[C@@H]1CCCN1C(=O)[C@H](CCCNC(=N)N)NC(=O)[C@@H](N)CCCCN)C(=O)O [Lys-BKm03] (H-KRPPGHSPFR-OH; N-terminus and C-terminus assumed) | <10 | – | – | – | – |
| N=C(N)NCCC[C@H](NC(=O)[C@H](Cc1c[nH]cn1)NC(=O)[C@@H]1CCCN1C(=O)[C@H](CO)NC(=O)[C@H](Cc1ccccc1)NC(=O)CNC(=O)[C@@H]1CCCN1C(=O)[C@@H]1CCCN1C(=O)[C@H](CCCNC(=N)N)NC(=O)[C@@H](N)CCCCN)C(=O)O [Lys-BKm04] (H-KRPPGFSPHR-OH; N-terminus and C-terminus assumed) | <10 | – | – | – | – |
| N=C(N)NCCC[C@H](NC(=O)[C@@H](N)CCCCN)C(=O)N1CCC[C@H]1C(=O)N1CCC[C@H]1C(=O)NCC(=O)N[C@@H](Cc1cccs1)C(=O)N[C@@H](CO)C(=O)N1CCC[C@H]1C(=O)N[C@@H](Cc1ccccc1)C(=O)O [Lys-BKm05] (H-KRPPG[2Thi]SPF-OH; N-terminus and C-terminus assumed) | <10 | lost the activity of activating downstream pathways | – | – | – |
| N=C(N)NCCC[C@H](NC(=O)[C@H](CCCNC(=N)N)NC(=O)[C@H](Cc1ccccc1)NC(=O)[C@@H]1CCCN1C(=O)[C@H](CO)NC(=O)[C@H](Cc1cccs1)NC(=O)CNC(=O)[C@@H]1CCCN1C(=O)[C@@H]1CCCN1C(=O)[C@H](CCCNC(=N)N)NC(=O)[C@@H](N)CCCCN)C(=O)O [Lys-BKm06] (H-KRPPG[2Thi]SPFRR-OH; N-terminus and C-terminus assumed) | 90 | showed the activity of activating downstream pathways | – | – | – |
| N=C(N)NCCC[C@H](NC(=O)[C@H](Cc1cccs1)NC(=O)[C@@H]1CCCN1C(=O)[C@H](CO)NC(=O)[C@H](Cc1cccs1)NC(=O)CNC(=O)[C@@H]1CCCN1C(=O)[C@@H]1CCCN1C(=O)[C@H](CCCNC(=N)N)NC(=O)[C@@H](N)CCCCN)C(=O)O [Lys-BKm07] (H-KRPPG[2Thi]SP[2Thi]R-OH; N-terminus and C-terminus assumed) | <10 | lost the activity of activating downstream pathways | – | – | – |
| N=C(N)NCCC[C@H](NC(=O)[C@H](Cc1ccccc1)NC(=O)[C@@H]1CCCN1C(=O)[C@H](CO)NC(=O)[C@H](Cc1cccs1)NC(=O)CNC(=O)[C@@H]1CCCN1C(=O)[C@@H]1CCCN1C(=O)[C@H](CCCNC(=N)N)NC(=O)[C@H](CCCNC(=N)N)NC(=O)[C@H](Cc1ccccc1)NC(=O)[C@@H]1CCCN1C(=O)[C@H](CO)NC(=O)[C@H](Cc1cccs1)NC(=O)CNC(=O)[C@@H]1CCCN1C(=O)[C@@H]1CCCN1C(=O)[C@H](CCCNC(=N)N)NC(=O)[C@@H](N)CCCCN)C(=O)O [Lys-BKm12] (H-KRPPG[2Thi]SPFRRPPG[2Thi]SPFR-OH; N-terminus and C-terminus assumed) | 100 | showed the activity of activating downstream pathways | showed no improvement in neurological deficits | significantly higher than that in LBK group | – |
| N=C(N)NCCC[C@H](NC(=O)[C@H](Cc1ccccc1)NC(=O)[C@@H]1CCCN1C(=O)[C@H](CO)NC(=O)[C@H](Cc1cccs1)NC(=O)CNC(=O)[C@@H]1CCCN1C(=O)[C@@H]1CCCN1C(=O)[C@H](CCCNC(=N)N)NC(=O)[C@H](CCCNC(=N)N)NC(=O)[C@@H](N)CS)C(=O)O [Lys-BKm13] (H-CRRPPG[2Thi]SPFR-OH; N-terminus and C-terminus assumed) | 115 | showed the activity of activating downstream pathways | – | significantly higher than that in LBK group | higher activity than the wild type Lys-BK |
| N=C(N)NCCC[C@H](NC(=O)[C@H](Cc1ccccc1)NC(=O)[C@@H]1CCCN1C(=O)[C@H](CO)NC(=O)[C@H](Cc1cccs1)NC(=O)CNC(=O)[C@@H]1CCCN1C(=O)[C@@H]1CCCN1C(=O)[C@H](CCCNC(=N)N)NC(=O)[C@@H](N)CS)C(=O)O [Lys-BKm15] (H-CRPPG[2Thi]SPFR-OH; N-terminus and C-terminus assumed) | 125 | showed the activity of activating downstream pathways | – | – | higher activity than the wild type Lys-BK |
